The list shows a part of the results.
B1: chr1:20742972:20743075:-|3pUTR|ENSG00000127483|unk|total|mutant (ssRNA)
RNA: GGGAGUUCUACAGUCCGACGAUCUAACCCUUUCUUAUUUGUAUUUGUUUCCGUAUUGUGAAGUUGUGUUAAACCGUACCCGCCCGAAAUACAAAUUUCUGGUUAUCAUUUCUCUUCCCUGUGGCACUUGACAUUUUAAUUGUCCAACAGAGGAUUGAGCAUCA
B2: chr1:213241217:213241334:+|CDS|ENSG00000136643|unk|FALSE|unique (ssRNA)
RNA: GGGAGUUCUACAGUCCGACGAUCAGUUCUCCAAGAACAUCAGAUUCCCUCAGUAGAUCAAAAAAUAGCCCCAUGGAAUUCUUUAGGAUAGACAGUAAGGAUAGCGCAAGUGAACUCCUGGGACUUGACUUUGGAGAAAAAUUGCAACAGAGGAUUGAGCAUCA
B3: ENSG00000155506:stop:overlap|stop_codon|ENSG00000155506|stop_codon|NA|stop_codon (ssRNA)
RNA: GGGAGUUCUACAGUCCGACGAUCAGAACGCAUUGCCGCCGGUCCUGACCACCGUGAACGGACAGUCCCCCCCAGAUACCCUUUAGGGCUGGUUUGCCUUAGUUGAGGAAGAAGACCCUCCUAGGGACUCUGUCUGCCAUCCACCAACAGAGGAUUGAGCAUCA
B4: chr11:10797513:10797714:-|3pUTR|ENSG00000110321|msi1_unk|total|mutant (ssRNA)
RNA: GGGAGUUCUACAGUCCGACGAUCUUCUGCAUAAGGUUUUUUUGCCGUGUAAUGUCUUAAUCACCGUCUACCAUCAAAUAUUUCCGGAGUAUCUUUAAUGUUCCGACCGUAUAUCCGCAGCAUGCAAUAAUUACAUCAUAAGUUCAACAGAGGAUUGAGCAUCA
B5: chr6:4954605:4954706:+|3pUTR|ENSG00000153046|msi1|total|mutant (ssRNA)
RNA: GGGAGUUCUACAGUCCGACGAUCGGAUAAAUACUUCUGAUGAAAAAUCCGCUGAGGAGCAUACCCCAAACCAGACAUAUGCUCCGGAUUCAUGCUGAGAUAUCAAUUGGUUUCCCCUUCUUUUUAAAAUACGUCCAGUUCUUACAACAGAGGAUUGAGCAUCA
B6: ENSG00000198589:be:win_7351|CDS|ENSG00000198589|bound_else_gene|NA|bound_elsewhere_windowed (ssRNA)
RNA: GGGAGUUCUACAGUCCGACGAUCGUGUUGAGAGAGGCUGUUGAAGCUCAAAUCCGAAGUUUUGGACAGACUCCUUCUCAACUACUCAUAGAGCCCCAUCCUCCCAGAGGUUCUGCCAUGCAAGUGAGUCCAUUGAUGUUCACACAACAGAGGAUUGAGCAUCA
B7: chr4:68310386:68314098:-|three_prime_utr|ENSG00000083896|control|control|control (ssRNA)
RNA: GGGAGUUCUACAGUCCGACGAUCGCACUGAUUGUUUAAAGAUACAAAAAAUCUUGUAUUUUUUUUUUGUGUGUGUUUACAAGUAGUAAAUUUAUUUUCAGCUGUCUGCCUAUGAAGUUCAUUGUGUAGAAGGAUUUAUUAUGACAACAGAGGAUUGAGCAUCA
B8: ENSG00000156853:stop:overlap|stop_codon|ENSG00000156853|stop_codon|NA|stop_codon (ssRNA)
RNA: GGGAGUUCUACAGUCCGACGAUCCCCCAAACUGUAGCCCUAGAUCUGCUAUCGGGGGCUCCAGUCAGAGGGGCAACGCCCAUUAGAAGGGGAAGGACUGCCUACGUUCAUUUCAUUUUAUGGAGGGUCCCAGAAAAGGGAAGGCAACAGAGGAUUGAGCAUCA
B9: chr17:35577220:35577322:-|CDS|ENSG00000108733|unk|FALSE|unique (ssRNA)
RNA: GGGAGUUCUACAGUCCGACGAUCUCUAUUAUGUUCCUGGUUCUUCUUCCCUAUCUGAAAGUGAAGCUGGAGAAGCUGGUUUCUAGCCUGAGAGAAGAGGAUGAAUAUUCUAUUCAUCCCCCUUCUUCCCGCUGGAAACGAUUUCAACAGAGGAUUGAGCAUCA
B10: chr3:48621462:48621756:-|CDS|ENSG00000183396|control|control|control (ssRNA)
RNA: GGGAGUUCUACAGUCCGACGAUCUACCAGGUGGGGCUGGACUUGCAGCCCUGGGGGUGUCAGCCAAAGAGUGUGGAGGGCUGUAGGGGUGGCCUGAGCUGUCCUGGCUACUGGCUGGGCCCUGGAGCAAGCCGCAUCUACCCCCAACAGAGGAUUGAGCAUCA
B11: chr12:21491601:21491717:-|CDS|ENSG00000004700|unk|FALSE|unique (ssRNA)
RNA: GGGAGUUCUACAGUCCGACGAUCGCUGCCUCCCAUAGCUCUAACUGAGGAACUGGAUUCUAUAACCAGUGAGCUACAUGCAGUAGAAAUUCAAAUUCAAGAACUUACGGAAAGGCAACAAGAGCUUAUUCAGAAAAAAAAAGUCAACAGAGGAUUGAGCAUCA
B12: chr7:107760707:107760808:+|3pUTR|ENSG00000105879|unk|FALSE|unique (ssRNA)
RNA: GGGAGUUCUACAGUCCGACGAUCAAACAUGAAAUAUGUAGUAUGCAGAUAUCAUUUAUUAGAUAGUUUGUAGUGUAUACAUUUAGAACAUACUUCUUUUGACAAAGGGUGAUCUGAUUGCUAAUUUACCAUUUUAUUCUGUCACAACAGAGGAUUGAGCAUCA
B13: chr6:77462233:77463403:-|CDS|ENSG00000135312|control|control|control (ssRNA)
RNA: GGGAGUUCUACAGUCCGACGAUCACCCUUCUUCAUCAUCUCCCUAGUGAUGCCUAUCUGCAAAGAUGCCUGCUGGUUCCACCUAGCCAUCUUUGACUUCUUCACAUGGCUGGGCUAUCUCAACUCCCUCAUCAACCCCAUAAUCAACAGAGGAUUGAGCAUCA
B14: chr9:19276226:19276327:+|CDS|ENSG00000137145|unk|FALSE|unique (ssRNA)
RNA: GGGAGUUCUACAGUCCGACGAUCCUUUGUCGUAGCUGGUCUCACUGACACAUCUACUCUUUUGGAUCAAGAAAUAAAUCGUUUAGAUACUAAGUCAACUGGACCUAAAGCUCCAAUUACAGACAUUGCCAUUAUUAUCAAAUCCAACAGAGGAUUGAGCAUCA
B15: chr21:14485227:14485911:-|three_prime_utr|ENSG00000155307|control|control|control (ssRNA)
RNA: GGGAGUUCUACAGUCCGACGAUCCCCAACUAUAUAUCUACAGAUGCAUUCCAUUUUAACUCUUCUUGAGCUAAAACGUCAAAUAGGAGAGGAAGAUAAGAUAAAUAUUUGUAAAUAAAACCUAAAGUUUAAAUGUUUUAAUCUCAACAGAGGAUUGAGCAUCA
B16: chr5:36035020:36035974:-|three_prime_utr|ENSG00000168671|control|control|control (ssRNA)
RNA: GGGAGUUCUACAGUCCGACGAUCAGACAUAAGGCCAGGUGCAGCCUUGGCGGGGUCUGUUUGGUGGGCGAUGUCACCAUUUCUAGGGAGCUUCCCACUAGUUCUGGCAGCCCCAUUCUCUAGUCCUUCUAGUUAUCUCCUGUUCAACAGAGGAUUGAGCAUCA
B17: ENSG00000227500:stop:overlap|stop_codon|ENSG00000227500|stop_codon|NA|stop_codon (ssRNA)
RNA: GGGAGUUCUACAGUCCGACGAUCGCAACAGCCUGCCCGAGUACCCCACUGUGCCCAGCUACCCGGGCAGUGGCCAGUGGCCUUAGAGGGAGCCUGCCCUGCCCCCACCGCCCACCACCUCCUCCCCUUCAUUCCUGCUGCUACCAACAGAGGAUUGAGCAUCA
B18: chr6:132328510:132328611:-|CDS|ENSG00000079931|msi1|total|mutant (ssRNA)
RNA: GGGAGUUCUACAGUCCGACGAUCUUGUGGGAUGUUGCCGGGUGGUCUUAUUUAUUGUGUCCUCCCUCUCAUUUAUGUUCGUGCCGGUUGAGCCAGUGAUACAGAGAGGCCAUGAGAGUCUGGUGCACCACAUCCUGCUCUAUCCAACAGAGGAUUGAGCAUCA
B19: chr1:234405902:234406099:-|CDS|ENSG00000059588|control|control|control (ssRNA)
RNA: GGGAGUUCUACAGUCCGACGAUCCCUUAUAGUUGUGCUGCAGUGGUGUUUCAAUCACAAUUUUAGUGUUCGACUGUAUGCUUUAGUUGCUCUUAAGAAACUCUGGACUGUGUGUAAAGUGUUAAGUGUUGAAGAAUUUGAUGCCAACAGAGGAUUGAGCAUCA
B20: chr13:46895483:46895906:-|CDS|ENSG00000102468|control|control|control (ssRNA)
RNA: GGGAGUUCUACAGUCCGACGAUCAGUGUCCCUAGAGAAAAAGCUGCAGAAUGCCACCAACUAUUUCCUGAUGUCACUUGCCAUAGCUGAUAUGCUGCUGGGUUUCCUUGUCAUGCCCGUGUCCAUGUUAACCAUCCUGUAUGGCAACAGAGGAUUGAGCAUCA
B21: chr15:30400561:30403739:-|three_prime_utr|ENSG00000186399|control|control|control (ssRNA)
RNA: GGGAGUUCUACAGUCCGACGAUCAUAAGAAACCAAGUUAUGGGGUUAAUCUCCUACACAAUUCAUUUACUUCCUUUGAAUGUUAGACUCACUCAUGAUUAUUUGUGUUUCUAAUUUAUAGUUUAAGUUUAUUUGUAAAAAGUUCAACAGAGGAUUGAGCAUCA
B22: chr22:41245667:41245769:-|3pUTR|ENSG00000100401|msi1|total|mutant (ssRNA)
RNA: GGGAGUUCUACAGUCCGACGAUCCAAUGUCCGAGCUGCAUCUGGACGCUGCUCUUAAAGGACCUCCUGGGGCAGGGGAGCGGCCGGGUCUGGACUGGGCAGAUGCUGUAUGACCUCCCUGAGCACCCGUGACUGCCCCAUGCUCAACAGAGGAUUGAGCAUCA

target: MSI1 full-length (mouse, UniProt Q61474 1-362); test: nsRBNS (natural sequence RNA bind-n-seq); RBNS binding buffer (assumed for nsRBNS): 25 mM Tris pH 7.5, 150 mM KCl, 3 mM MgCl2, 0.01% Triton X-100, 500 ug/ml BSA, 20 U/ml SUPERase-In, 4 C; UNK is unkempt and MSI1 is Musashi-1; names of the RNAs are library labels; protein concentration not given here; high values mean tight binding
Chain of UniProt Q61474 (Q61474 whole entry): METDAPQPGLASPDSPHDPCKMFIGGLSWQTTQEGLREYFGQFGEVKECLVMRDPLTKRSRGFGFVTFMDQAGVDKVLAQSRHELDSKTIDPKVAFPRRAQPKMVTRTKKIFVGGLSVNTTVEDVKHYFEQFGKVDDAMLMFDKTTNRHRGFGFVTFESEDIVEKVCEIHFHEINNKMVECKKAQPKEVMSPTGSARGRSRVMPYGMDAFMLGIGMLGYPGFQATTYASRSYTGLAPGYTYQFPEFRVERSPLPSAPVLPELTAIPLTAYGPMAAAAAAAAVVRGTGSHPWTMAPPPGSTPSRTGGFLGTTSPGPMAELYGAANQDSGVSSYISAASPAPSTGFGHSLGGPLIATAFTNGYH

Binder | binding signal
B1 | 1.4 enrichment R
B2 | 24.6 enrichment R
B3 | 1.09 enrichment R
B4 | 1.63 enrichment R
B5 | 0.346 enrichment R
B6 | 0.404 enrichment R
B7 | 1.55 enrichment R
B8 | 1.01 enrichment R
B9 | 0.266 enrichment R
B10 | 0.472 enrichment R
B11 | 0.401 enrichment R
B12 | 56.7 enrichment R
B13 | 0.7 enrichment R
B14 | 0.992 enrichment R
B15 | 1.2 enrichment R
B16 | 1.29 enrichment R
B17 | 0.675 enrichment R
B18 | 0.479 enrichment R
B19 | 0.964 enrichment R
B20 | 0.65 enrichment R
B21 | 6.05 enrichment R
B22 | 0.341 enrichment R

— article PMC12136788
